About 260 (0.063%) of roughly 410,000 compounds were called active. Inconclusive results, whose numbers are uncertain, are shown with a selection of clear calls. Calls come from the whole dose curve; as a rule, active = well fitted activation curve with a large enough effect; inconclusive = small, poorly fitted or top-dose-only effect; inactive = no such curve, though single readings can be large or run the other way. No potency is given beside an inconclusive call; the fits are too rough.
test: qHTS for compounds that reverse cellular toxicity of Amyloid beta (A-beta) peptide in yeast: Primary Screen; conditions: yeast expressing A-beta42, growth rescue, OD600, 48 h; growth rescue: at 46.1 µM (top of the series), 0% DMSO, 100% iron-clioquinol control; note: nearly all actives have a fitted effect of over 55% in size
Summary of the method: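 Yeast A-beta toxicity model in growth medium with pinned compounds, 48 h at 30 C; growth read as absorbance at 600 nm. Normalized to FeCl3/clioquinol equimolar mix (positive) and DMSO (negative).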
Potency is the fitted concentration of half-maximal effect; tags give direction and shape of the fitted curve.

Row | Compound | Potency | growth rescue
1 | CN=Cc1c(NC)nc2c(C)cccn2c1=O | inconclusive [activator, single point] | –
2 | COC(=O)[C@]12CCCCC=C1N(CCC1=CCCCC1)C(=O)[C@H](CC(=O)NCc1cccc(C(F)(F)F)c1)C2 | inactive | –
3 | Cc1ccccc1S(=O)(=O)Oc1ccccc1C(=O)Oc1ccccc1 | inactive | –
4 | Cc1ccc(Oc2coc3cc(O)ccc3c2=O)cc1 | inconclusive [activator, single point] | –
5 | c1ccc(-c2c3ccccc3nc3[nH]c4ccccc4c23)cc1 | inconclusive [activator, full curve] | –
6 | COc1ccc(NC(=O)Nc2ccc3c(c2)C(=O)N([C@H](C)CO)C[C@H](C)[C@@H](CN(C)S(=O)(=O)c2ccccc2)O3)cc1 | inactive | –
7 | COc1ccc(Cl)cc1NC(=O)c1cc2c(=O)n3ccccc3nc2s1 | inactive | –
8 | COc1ccc(CNc2nc(-c3ccco3)nn2S(=O)(=O)c2ccc(Cl)cc2)cc1OC | inconclusive [activator, partial curve, poor fit] | –
9 | C(=C\c1ccncc1)/c1ccncc1 | inconclusive [activator, single point] | –
10 | Cc1cc(C)n(-c2nnc(Nc3ccc(C)c(C)c3)c3ccccc23)n1 | inconclusive [activator, single point] | –
11 | COc1ccccc1N1CCN(c2ncnc3c2nnn3C)CC1 | inactive | –
12 | Cc1ccc(S(=O)(=O)N2CCCCC2)cc1NC(=O)CSc1ccc2c(c1)OCCO2 | inconclusive [activator, partial curve] | –
13 | CCN(CC)CCOC(=O)c1ccc(NC(=O)c2cc3c(=O)n(CC)c4ccccc4c3s2)cc1 | inactive | –
14 | C=CCCC(=O)N1CCCC(Cc2cccc(Cl)c2)(C(=O)OCC)C1 (configuration not stated) | inconclusive [activator, full curve] | –
15 | COc1ccc(NC(=O)C2CCN(S(=O)(=O)c3cccc(-c4noc(C)n4)c3)CC2)cc1OC | inactive | –
16 | COc1ccc(CC(=O)OCC(=O)c2c[nH]c3ccccc23)cc1 | inconclusive [activator, single point] | –
17 | CCCN(Cc1ccccc1)C(=S)Nc1cccc(C(F)(F)F)c1 | inconclusive [activator, single point] | –
18 | CCOC(=O)c1cc(-c2ccc(OC)cc2)nc2c1c(C)nn2CCC(N)=S | inconclusive [activator, single point] | –
19 | CCC(C)(C)NC(=O)C1CCN(S(=O)(=O)c2ccc3c(c2)CCCN3C(C)=O)CC1 | inconclusive [activator, full curve] | –
20 | CCOc1ccc(CCNC(=O)c2cc3cccc4c3n2CCS4)cc1 | inactive | –
21 | CCOc1cccc(NC(=O)C2CC(=O)N(CC)C(=Nc3ccc(F)cc3)S2)c1 (configuration not stated) | inconclusive [activator, partial curve, poor fit] | –
22 | O=C(CSc1ccc2ccccc2c1)N1CCN(c2ccc(O)cc2)CC1 | inconclusive [activator, single point] | –
23 | COc1cccc(NC(=S)NC(=O)Cc2ccccc2)c1 | inconclusive [activator, partial curve, poor fit] | –
24 | Cc1cccc(Cn2c(=O)n3nc(-c4ccccc4)nc3c3ccccc32)c1 | inactive | –

Row | Compound | Potency | growth rescue
25 | Cc1ccc(C)c(NC(=O)C(NCC(C)(C)N2CCOCC2)c2ccccc2)c1 (configuration not stated) | inconclusive [activator, single point] | –
26 | CC[C@]12c3[nH]c4ccc(OC)cc4c3CCN1C(=O)C(CC(=O)NC/C=C(\C)CCC=C(C)C)C[C@@H]2C(=O)N1CCN(C(=O)C2CC2)CC1 (some centres not stated) | inactive | –
27 | CCOc1cc(-c2ccc(OC(=O)c3ccc(C)cc3)c(OC)c2)cc(=O)c2c(C)oc(C)c12 | inactive | –
28 | CS(=O)(=O)n1nc(-c2ccc(Cl)cc2)nc1SCc1ccccc1 | inconclusive [activator, single point] | –
29 | CCc1cccc(C)c1NS(=O)(=O)Cc1ccccc1 | inconclusive [activator, partial curve, poor fit] | –
30 | Cc1sc2nc(SCC(=O)c3cccs3)n(Cc3ccco3)c(=O)c2c1C | – | inconclusive: -81.5% [activator]
31 | CCCC1C(c2ccccc2)C(C#N)(C#N)C2(C#N)CC1(N)NC2=O (configuration not stated) | inconclusive [activator, partial curve] | –
32 | Cc1cccc(CSCc2ccc(C(=O)NCCc3ccccc3)o2)c1 | inactive | –
33 | Cc1ccc(Cl)cc1N1CCN(CCCNC(=O)C2COc3ccccc3C2)CC1 (configuration not stated) | inactive | –
34 | O=C1CC(c2ccccc2)CC2=C1C=Nc1ccccc1N2 (configuration not stated) | inactive | –
35 | CCOC(=O)Cn1c(=O)oc2cc(S(=O)(=O)NCCc3ccc(C)cc3)ccc21 | inconclusive [activator, partial curve, poor fit] | –
36 | COCc1cc(OC)nc(-c2csc(C)n2)n1 | active: 15.8 µM | –
37 | Cc1cccc(C)c1NC(=O)Cn1c(=O)n(Cc2ccc3c(c2)OCO3)c(=O)c2oc3ccccc3c21 | inactive | –
38 | CC(=O)N1N=C(c2ccc(Br)cc2)CC1c1ccc(Br)cc1 (configuration not stated) | inactive | –
39 | Fc1ccc(-n2ncc3c(NCCC4=CCCCC4)ncnc32)cc1 | inactive | –
40 | O=C(Nc1cccc2ccccc12)OC1C=CS(=O)(=O)C1 (configuration not stated) | inconclusive [activator, single point] | –
41 | CN(Cc1ccccc1)C(=O)C1CCCN1S(=O)(=O)c1ccc(Cl)cc1 (configuration not stated) | inconclusive [activator, full curve] | –
42 | COc1ccc(C(=O)N2CC3(CC(c4cccc(NC(=O)COc5ccc(Cl)cc5)c4)=NO3)C[C@@H]2C(N)=O)cc1 (some centres not stated) | inactive | –
43 | Cc1cccc(C(=O)NCC(C)NC(=O)c2cccc(C)c2)c1 (configuration not stated) | – | inconclusive: 73.3% [activator]
44 | O=C(Nc1cccc2ccccc12)/C(Cl)=C/c1ccccc1 | inactive | –
45 | O=C(/C=C/c1ccccc1)Nc1cccc(C(=O)N2CCCCC2)c1 | inactive | –
46 | CC(C)NC(=O)C1(C)CCN1Cc1cccc(Cl)c1 (configuration not stated) | inactive | –
47 | COc1cccc(CN(C)C(=O)c2ccc(NC(=O)CC3SC(N4CCCCC4)=NC3=O)cc2)c1OC (configuration not stated) | inactive | –
